# In all, about 2,900 compounds were measured (“NF-kB SEAP reporter activity, fold change vs agonist alone”: median about 0.99, highest 2% from about 2.6 on). The list shows a part of the results.
# Tests used:
# RAW-Dual [1] = assay: NF-kB SEAP reporter activity, fold change vs agonist alone; cytotoxicity flag (confluency mask): not cytotoxic; higher = enhanced NF-kB activity
# Summary of the method: (§1)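 Supernatant from RAW-Dual macrophages was read after 20 hours for IRF by QuantiLuc luminescence and for NF-κB by QuantiBlue absorbance at 620 nm. The cells (50,000 cells/well in DMEM, 384-well plates, 37 °C, 5% CO2) had received 50 nL of library stock by pin tool and, 1 h later, a PRR agonist. Reporter activity is expressed relative to agonist-alone wells as fold change, and wells were flagged cytotoxic if IncuCyte confluency was under 70% of agonist controls in both mask sets.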
# RAW-Dual [2] = assay: NF-kB SEAP reporter activity, fold change vs agonist alone; higher = enhanced NF-kB activity; details: cytotoxicity flag (confluency mask): not cytotoxic
# Summary of the method: as §1
# [3] = agonist: ODN 1826 (TLR9) 0.5 ug/mL
# [4] = agonist: Pam2CSK4 (TLR2/6) 0.1 ug/mL
# [5] = agonist: Pam3CSK4 (TLR2/1) 0.1 ug/mL
# [6] = library stock concentration (final ~1000-fold dilution): 10 mM, agonist: Imiquimod (TLR7) […]
# [7] = library stock concentration (final ~1000-fold dilution): 10 mM, agonist: MPLA (TLR4) […]
structure (smiles),measurement,setting,value
CC(=O)Cc1cc(=O)c2c(C)cc(O)c(C3OC(CO)C(O)C(O)C3O)c2o1 (configuration not stated) (library stock concentration (final ~1000-fold dilution): 10 mM),NF-kB SEAP reporter activity,RAW-Dual [1]; agonist: LPS (TLR4) 0.1 ug/mL,1.21
same,NF-kB SEAP reporter activity,RAW-Dual [1]; [3],1.01
same,NF-kB SEAP reporter activity,RAW-Dual [1]; [4],1.04
same,NF-kB SEAP reporter activity,RAW-Dual [1]; [5],1.22
CC(=O)Cc1cc(=O)c2c(C)cc(O)c(C3OC(CO)C(O)C(O)C3O)c2o1 (configuration not stated),NF-kB SEAP reporter activity,RAW-Dual [2]; [6],0.982
same,NF-kB SEAP reporter activity,RAW-Dual [2]; [7],1.02
COc1cc2ncnc(Sc3nnc(C)s3)c2cc1OC,NF-kB SEAP reporter activity,RAW-Dual [2]; [6],1.29
same,NF-kB SEAP reporter activity,RAW-Dual [2]; [7],0.984
COc1cc2ncnc(Sc3nnc(C)s3)c2cc1OC (library stock concentration (final ~1000-fold dilution): 10 mM),NF-kB SEAP reporter activity,RAW-Dual [1]; agonist: LPS (TLR4) 0.1 ug/mL,0.223
same,NF-kB SEAP reporter activity,RAW-Dual [1]; [3],0.567
same,NF-kB SEAP reporter activity,RAW-Dual [1]; [4],0.0738
same,NF-kB SEAP reporter activity,RAW-Dual [1]; [5],0.164
CC(=O)Nc1cccc(-n2c(=O)n(C3CC3)c(=O)c3c(Nc4ccc(I)cc4F)n(C)c(=O)c(C)c32)c1 (library stock concentration (final ~1000-fold dilution): 10 mM),NF-kB SEAP reporter activity,RAW-Dual [1]; agonist: LPS (TLR4) 0.1 ug/mL,0.191
same,NF-kB SEAP reporter activity,RAW-Dual [1]; [3],0.288
same,NF-kB SEAP reporter activity,RAW-Dual [1]; [4],0.0794
same,NF-kB SEAP reporter activity,RAW-Dual [1]; [5],0.142
CC(=O)Nc1cccc(-n2c(=O)n(C3CC3)c(=O)c3c(Nc4ccc(I)cc4F)n(C)c(=O)c(C)c32)c1,NF-kB SEAP reporter activity,RAW-Dual [2]; [6],0.2
same,NF-kB SEAP reporter activity,RAW-Dual [2]; [7],0.211
Cc1nc[nH]c1CN1CCc2c(c3ccccc3n2C)C1=O.Cl (library stock concentration (final ~1000-fold dilution): 2 mM water),NF-kB SEAP reporter activity,RAW-Dual [1]; agonist: LPS (TLR4) 0.1 ug/mL,1.14
same,NF-kB SEAP reporter activity,RAW-Dual [1]; [3],1.09
same,NF-kB SEAP reporter activity,RAW-Dual [1]; [4],1.15
same,NF-kB SEAP reporter activity,RAW-Dual [1]; [5],0.961
Cc1nc[nH]c1CN1CCc2c(c3ccccc3n2C)C1=O.Cl,NF-kB SEAP reporter activity,"RAW-Dual [2]; library stock concentration (final ~1000-fold dilution): 2 mM water, agonist: MPLA (TLR4) […]",1.06
COc1c(O[C@@H]2O[C@H](CO)[C@@H](O)[C@H](O)[C@H]2O)cc2oc(-c3ccc(O)cc3)cc(=O)c2c1O (library stock concentration (final ~1000-fold dilution): 10 mM),NF-kB SEAP reporter activity,RAW-Dual [1]; agonist: LPS (TLR4) 0.1 ug/mL,1.15
same,NF-kB SEAP reporter activity,RAW-Dual [1]; [3],1.21
same,NF-kB SEAP reporter activity,RAW-Dual [1]; [4],1.07
same,NF-kB SEAP reporter activity,RAW-Dual [1]; [5],1.04
COc1c(O[C@@H]2O[C@H](CO)[C@@H](O)[C@H](O)[C@H]2O)cc2oc(-c3ccc(O)cc3)cc(=O)c2c1O,NF-kB SEAP reporter activity,RAW-Dual [2]; [6],0.977
same,NF-kB SEAP reporter activity,RAW-Dual [2]; [7],1.04
Cl.Cn1cc(C(=O)C2CCc3nc[nH]c3C2)c2ccccc21 (configuration not stated) (library stock concentration (final ~1000-fold dilution): 10 mM),NF-kB SEAP reporter activity,RAW-Dual [1]; agonist: LPS (TLR4) 0.1 ug/mL,1.01
same,NF-kB SEAP reporter activity,RAW-Dual [1]; [3],0.67
same,NF-kB SEAP reporter activity,RAW-Dual [1]; [4],0.928
same,NF-kB SEAP reporter activity,RAW-Dual [1]; [5],0.877
Cl.Cn1cc(C(=O)C2CCc3nc[nH]c3C2)c2ccccc21 (configuration not stated),NF-kB SEAP reporter activity,RAW-Dual [2]; [6],0.775
same,NF-kB SEAP reporter activity,RAW-Dual [2]; [7],0.816
CC(C)CC1NC(=O)C(C(C)C)NC(=O)C2CCCN2C(=O)C(CC(=O)O)NC(=O)C(Cc2c[nH]c3ccccc23)NC1=O (configuration not stated) (library stock concentration (final ~1000-fold dilution): 10 mM),NF-kB SEAP reporter activity,RAW-Dual [1]; agonist: LPS (TLR4) 0.1 ug/mL,1.01
same,NF-kB SEAP reporter activity,RAW-Dual [1]; [3],0.96
same,NF-kB SEAP reporter activity,RAW-Dual [1]; [4],1.22
same,NF-kB SEAP reporter activity,RAW-Dual [1]; [5],1.05
CC(C)CC1NC(=O)C(C(C)C)NC(=O)C2CCCN2C(=O)C(CC(=O)O)NC(=O)C(Cc2c[nH]c3ccccc23)NC1=O (configuration not stated),NF-kB SEAP reporter activity,RAW-Dual [2]; [6],0.93
same,NF-kB SEAP reporter activity,RAW-Dual [2]; [7],1.04
CC[N+](C)(C)c1cccc(O)c1 (library stock concentration (final ~1000-fold dilution): 10 mM),NF-kB SEAP reporter activity,RAW-Dual [1]; agonist: LPS (TLR4) 0.1 ug/mL,1.54
same,NF-kB SEAP reporter activity,RAW-Dual [1]; [3],0.931
same,NF-kB SEAP reporter activity,RAW-Dual [1]; [4],0.952
same,NF-kB SEAP reporter activity,RAW-Dual [1]; [5],1.08
CC[N+](C)(C)c1cccc(O)c1,NF-kB SEAP reporter activity,RAW-Dual [2]; [6],0.898
same,NF-kB SEAP reporter activity,RAW-Dual [2]; [7],1.01
CC1(C)CC[C@]2(C(=O)O)CC[C@]3(C)C(=CC[C@@H]4[C@@]5(C)C[C@@H](O)[C@H](O)C(C)(C)[C@@H]5CC[C@]43C)[C@@H]2C1 (library stock concentration (final ~1000-fold dilution): 10 mM),NF-kB SEAP reporter activity,RAW-Dual [1]; agonist: LPS (TLR4) 0.1 ug/mL,1.76
same,NF-kB SEAP reporter activity,RAW-Dual [1]; [3],1.09
same,NF-kB SEAP reporter activity,RAW-Dual [1]; [4],1.01
same,NF-kB SEAP reporter activity,RAW-Dual [1]; [5],1.18
CC1(C)CC[C@]2(C(=O)O)CC[C@]3(C)C(=CC[C@@H]4[C@@]5(C)C[C@@H](O)[C@H](O)C(C)(C)[C@@H]5CC[C@]43C)[C@@H]2C1,NF-kB SEAP reporter activity,RAW-Dual [2]; [6],1.2
same,NF-kB SEAP reporter activity,RAW-Dual [2]; [7],1.44
CCN(CCO)CCCOc1ccc2c(Nc3cc(CC(=O)Nc4cccc(F)c4)n[nH]3)ncnc2c1 (library stock concentration (final ~1000-fold dilution): 10 mM),NF-kB SEAP reporter activity,RAW-Dual [1]; agonist: LPS (TLR4) 0.1 ug/mL,0.954
same,NF-kB SEAP reporter activity,RAW-Dual [1]; [3],0.917
same,NF-kB SEAP reporter activity,RAW-Dual [1]; [4],0.878
same,NF-kB SEAP reporter activity,RAW-Dual [1]; [5],0.853
CCN(CCO)CCCOc1ccc2c(Nc3cc(CC(=O)Nc4cccc(F)c4)n[nH]3)ncnc2c1,NF-kB SEAP reporter activity,RAW-Dual [2]; [6],0.819
same,NF-kB SEAP reporter activity,RAW-Dual [2]; [7],0.925
OC(Cn1cncn1)(Cn1cncn1)c1ccc(F)cc1F,NF-kB SEAP reporter activity,RAW-Dual [2]; [6],0.936
same,NF-kB SEAP reporter activity,RAW-Dual [2]; [7],0.954
OC(Cn1cncn1)(Cn1cncn1)c1ccc(F)cc1F (library stock concentration (final ~1000-fold dilution): 10 mM),NF-kB SEAP reporter activity,RAW-Dual [1]; agonist: LPS (TLR4) 0.1 ug/mL,1.33
same,NF-kB SEAP reporter activity,RAW-Dual [1]; [3],0.995
same,NF-kB SEAP reporter activity,RAW-Dual [1]; [4],1.07
same,NF-kB SEAP reporter activity,RAW-Dual [1]; [5],1.07
Cc1ccsc1C(=CCCN1CCCC(C(=O)O)C1)c1sccc1C (configuration not stated),NF-kB SEAP reporter activity,RAW-Dual [2]; [7],1.04
Cc1ccsc1C(=CCCN1CCCC(C(=O)O)C1)c1sccc1C (configuration not stated) (library stock concentration (final ~1000-fold dilution): 10 mM),NF-kB SEAP reporter activity,RAW-Dual [1]; agonist: LPS (TLR4) 0.1 ug/mL,1.07
same,NF-kB SEAP reporter activity,RAW-Dual [1]; [3],0.887
same,NF-kB SEAP reporter activity,RAW-Dual [1]; [4],1.09
same,NF-kB SEAP reporter activity,RAW-Dual [1]; [5],1.1
CC(C)Oc1ccc(-c2c[nH]cc2CN(C)CCN)cc1,NF-kB SEAP reporter activity,RAW-Dual [2]; [6],1.31
same,NF-kB SEAP reporter activity,RAW-Dual [2]; [7],1.07

# Source: the supplement of paper PMC10037445
